Measured values published in the supplement of paper PMC10126150.
Values marked as one replicate rest on one cluster of the flow cell; about a third of the high ones do not repeat.
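Also: ATP exposure 15 min at 22 °C before imaging.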

Each sequence was assayed on ATP (assay: switch fluorescence ratio, 500 uM ATP over buffer (Cy3 cluster intensity, sum of 5 cycles each) (fold (ratio)); higher = stronger signal-on switching upon ATP binding; sequences stand for … in TCGTCGGCAGCGTCAGATGTGTATAAGAGACAGTTTTTTTTTTTTTTTTTTTTTTTTT…TC). Details: aptamer strand: ATP DNA aptamer (quencher-CACCTGGGGGAGTATTGCGGAGGAAGG + anchor), 100 nM annealed; ATP concentration: 500 uM; one replicate.
In short: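 Switching-strand clusters labelled with Cy3 on a modified Illumina MiSeq flow-cell were annealed to 100 nM quencher-labelled ATP aptamer, imaged in selection buffer, and re-imaged after 15 min with 500 uM ATP at 22 °C. This was done over five cycles with NaOH stripping and re-annealing in between. The fluorescence ratio is summed target-cycle over summed buffer-cycle Cy3 intensity per cluster, averaged per switch-domain sequence, excluding clusters outside 100-1000 RFU.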
For AAGGCGTCTT, the switch fluorescence ratio was 1.01. For AAGGCGTTGG, the switch fluorescence ratio was 1. AAGGCTTAAG showed a switch fluorescence ratio of 1.02. For AAGGCTTGAG, the switch fluorescence ratio was 0.962. Work on AAGGGATATT yielded a switch fluorescence ratio of 0.986. AAGGGCAATA was tested, and the switch fluorescence ratio was 2.08. Work on AAGGGCTCTC yielded a switch fluorescence ratio of 0.986. Work on AAGGGTATAG yielded a switch fluorescence ratio of 1.07. In the case of AAGGTCGGCA, the switch fluorescence ratio is reported as 1. Sequence AAGGTGAGAG has a switch fluorescence ratio of 0.951. Work on AAGGTGATAT yielded a switch fluorescence ratio of 1.06. AAGGTGCAAC was tested, and the switch fluorescence ratio was 0.967. AAGGTGCTAC gave a switch fluorescence ratio of 1.1. Sequence AAGGTGGCCG has a switch fluorescence ratio of 0.952. Sequence AAGGTGTTAT has a switch fluorescence ratio of 1.07. AAGGTTACAG showed a switch fluorescence ratio of 1.01. For AAGGTTAGAT, the switch fluorescence ratio was 0.989. AAGGTTCAAT showed a switch fluorescence ratio of 1.02. AAGGTTGTTC gave a switch fluorescence ratio of 1.01. Sequence AAGGTTTTGA has a switch fluorescence ratio of 0.986. With AAGTAATTCA the switch fluorescence ratio was 1.04. Work on AAGTAATTGA yielded a switch fluorescence ratio of 1.01. Work on AAGTACTGA yielded a switch fluorescence ratio of 1.27. Sequence AAGTAGATTA has a switch fluorescence ratio of 1. For AAGTAGCCAA, the switch fluorescence ratio was 0.948. Work on AAGTAGGATT yielded a switch fluorescence ratio of 1.03. Sequence AAGTATAAGT has a switch fluorescence ratio of 0.981. Work on AAGTATGAG yielded a switch fluorescence ratio of 0.999. In the case of AAGTATGCC, the switch fluorescence ratio is reported as 1.18. With AAGTCAAAAC the switch fluorescence ratio was 1.19. With AAGTCAGGTG the switch fluorescence ratio was 2.32. Work on AAGTCAGTTT yielded a switch fluorescence ratio of 1.01. AAGTCCCTAG gave a switch fluorescence ratio of 0.986. AAGTCGGGGT gave a switch fluorescence ratio of 0.959. Sequence AAGTCTGAGA has a switch fluorescence ratio of 0.975. Sequence AAGTCTGGCG has a switch fluorescence ratio of 0.981. In the case of AAGTGACGCT, the switch fluorescence ratio is reported as 0.984. Work on AAGTGAGAG yielded a switch fluorescence ratio of 1. AAGTGAGCCG showed a switch fluorescence ratio of 1.03. Sequence AAGTGCTCA has a switch fluorescence ratio of 1.01. AAGTGGCTCC showed a switch fluorescence ratio of 0.993. Sequence AAGTGTGTTG has a switch fluorescence ratio of 0.959. In the case of AAGTGTTCTG, the switch fluorescence ratio is reported as 0.993. In the case of AAGTTAGATT, the switch fluorescence ratio is reported as 1.04. AAGTTCTTTC was tested, and the switch fluorescence ratio was 1.02. With AAGTTGAAGC the switch fluorescence ratio was 1.01. AAGTTGCTGC showed a switch fluorescence ratio of 1.05. In the case of AATAAATTCG, the switch fluorescence ratio is reported as 0.994. With AATAAATTTG the switch fluorescence ratio was 1.03. In the case of AATAACACGC, the switch fluorescence ratio is reported as 1.01. For AATAACGTCC, the switch fluorescence ratio was 1.06. With AATAACGTGA the switch fluorescence ratio was 1.01. Sequence AATAACGTGT has a switch fluorescence ratio of 1.02. For AATAAGTCCG, the switch fluorescence ratio was 0.997. For AATAATAGAG, the switch fluorescence ratio was 0.953. Work on AATAATCACG yielded a switch fluorescence ratio of 1.02. AATAATCCTT gave a switch fluorescence ratio of 0.974. For AATAATTTAG, the switch fluorescence ratio was 0.974. AATACACGAG showed a switch fluorescence ratio of 1.01. AATACCAAGC showed a switch fluorescence ratio of 1.06. With AATACCACGC the switch fluorescence ratio was 1.1. AATACCTGTA gave a switch fluorescence ratio of 1.06. For AATACCTTAC, the switch fluorescence ratio was 2.82. AATACGCCAT was tested, and the switch fluorescence ratio was 2.31. Work on AATACTACAT yielded a switch fluorescence ratio of 1.01. In the case of AATACTGGCT, the switch fluorescence ratio is reported as 1.09. Work on AATAGAATTC yielded a switch fluorescence ratio of 0.951. AATAGACTTC gave a switch fluorescence ratio of 0.973. For AATAGCTAAG, the switch fluorescence ratio was 1.02. AATAGGATAT was tested, and the switch fluorescence ratio was 1.01. AATAGGATTC gave a switch fluorescence ratio of 0.966. Sequence AATAGGCACT has a switch fluorescence ratio of 0.999. Work on AATAGGCCCA yielded a switch fluorescence ratio of 0.988. For AATAGGCCGA, the switch fluorescence ratio was 1.03. AATAGGTGAC showed a switch fluorescence ratio of 1.07. AATAGTAACA showed a switch fluorescence ratio of 1.01. Work on AATAGTGGG yielded a switch fluorescence ratio of 0.962. In the case of AATATACCTT, the switch fluorescence ratio is reported as 1.81. Work on AATATCCAT yielded a switch fluorescence ratio of 0.951. AATATCGCCG gave a switch fluorescence ratio of 1.05. AATATGGCCA was tested, and the switch fluorescence ratio was 0.999. Sequence AATATGTGTC has a switch fluorescence ratio of 1.06. With AATATTGGGT the switch fluorescence ratio was 1.06. In the case of AATCACAGAC, the switch fluorescence ratio is reported as 1.33. AATCACGTA showed a switch fluorescence ratio of 1.26. With AATCAGACCG the switch fluorescence ratio was 1.04. For AATCATCCAT, the switch fluorescence ratio was 1.05. With AATCATTTAC the switch fluorescence ratio was 1.34. Sequence AATCATTTAT has a switch fluorescence ratio of 0.975. With AATCCCAGC the switch fluorescence ratio was 1.06. For AATCCCGGCT, the switch fluorescence ratio was 1.1. In the case of AATCCGAGAC, the switch fluorescence ratio is reported as 1.31. In the case of AATCCTATCC, the switch fluorescence ratio is reported as 1.28. For AATCGCAAGC, the switch fluorescence ratio was 4.73. In the case of AATCGCAGCA, the switch fluorescence ratio is reported as 1.09. For AATCGCCCCT, the switch fluorescence ratio was 1.07. In the case of AATCGCTAAG, the switch fluorescence ratio is reported as 0.986. Work on AATCGGCGGT yielded a switch fluorescence ratio of 0.998. In the case of AATCGGGACT, the switch fluorescence ratio is reported as 1.01. For AATCGTATGA, the switch fluorescence ratio was 0.951.
